Where “and” joins values, the source holds several entries; their conditions need not be identical. Identical values can stand only once. Screen size: about 340,000 compounds; about 12,000 (3.5%) were called active. This list was built around the results that the source calls inconclusive (neither active nor inactive); the mix of calls is not that of the screen. The call rests on the fitted dose curve; in most records, active means well fitted inhibition curve with a large enough effect; inconclusive means small, poorly fitted or top-dose-only effect, or another doubt; inactive means no such curve, though single readings can be large or run the other way. Potencies of inconclusive entries are doubtful fits and often do not repeat.
Assay: qHTS Assay for Inhibitors of Hepatitis C Virus (HCV)
Settings: Huh7.5.1 HCVcc-Cre (HCVcc is cell-culture hepatitis C virus) infection, luciferase reporter, 44 h; series mostly up to 41.8 µM
Summary of the method: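 Cells seeded at 1,000/well and cultured 4 h, then compounds added followed by HCVcc-Cre virus (~0.5 moi). After 44 h further culture, luciferase substrate was added, plates held 15 min at room temperature, and luminescence read for 15 sec.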
Potency means the concentration at half of the fitted maximal effect; tags describe the fitted curve by direction and shape.

SMILES | Potency
O=C1CCCC/C1=C/Nc1ccc2c(c1)OCO2 | inactive
CCCCNC(=O)c1cn(C)c2ccc(S(=O)(=O)N3CCCC3)cc2c1=O | inactive
COc1ccccc1NC(=O)CNc1ccc(F)c(Cl)c1 | inactive
COC(=O)c1ccc(C2Nc3cccc4cccc(c34)N2)cc1 | inactive
CCOC(=O)[C@H]1[C@H]2COc3ccc(Cl)cc3[C@@H]2N2C(=O)CN(Cc3ccc(C)cc3)C(=O)[C@@]12C | inconclusive: 31.6 µM [inhibitor, single point]
Cc1ccc(NC(=O)CSCc2cc(=O)n3ccsc3n2)c(C)c1 | inactive
CC(C)(C)N1C(=O)[C@H]2[C@@H](c3ccc(Br)cc3)N3C(=O)N(c4cccc(F)c4)C(=O)[C@@]3(Cc3ccccc3)[C@H]2C1=O | inconclusive: 31.6 µM [inhibitor, single point]
CC(=O)C1=C(C)Nc2ncnn2C1c1ccccc1Cl (stereo not given) | inactive
Cc1c(/C=C/C(=O)c2ccc(C(C)C)cc2)cnn1C | active: 31.6 µM
Cc1ccc(N(Cc2ccc(C(=O)NN=C3CCN(C)CC3)cc2)S(C)(=O)=O)cc1C | inactive
C=CCN1C(=O)/C(=N/n2cnnc2)c2ccccc21 | inconclusive: 3.55 µM [inhibitor, single point]
O=C1CCCc2c1[nH]c1ccccc21 | inconclusive: 5.01 µM [inhibitor, single point]
Cc1ccc(NC(=O)c2ccc(Nc3c([N+](=O)[O-])cc([N+](=O)[O-])cc3[N+](=O)[O-])cc2)cc1 | active: 10 µM
COc1cccc(CN2c3ccc(Br)cc3C(=O)CS2(=O)=O)c1 | inconclusive: 8.91 µM [inhibitor, partial curve, poor fit]
CCN1CCN(c2nc(Nc3cccc(C)c3)nc(N)c2[N+](=O)[O-])CC1 | inconclusive: 25.1 µM [inhibitor, single point]
O=C1CCc2cc(S(=O)(=O)N3CCCCC3)cc3c2N1CCC3 | inconclusive: 3.16 µM [inhibitor, single point]
O=C(NCC(c1ccco1)N1CCCC1)c1cccc(S(=O)(=O)N2CCOCC2)c1 (stereo not given) | inactive
CC(=O)Nc1c(C(=O)O)[nH]c2ccccc12 | inactive
CCOC(=O)c1cc(NC(=O)Cc2ccc(S(=O)(=O)N3CCOCC3)s2)cc(C(=O)OCC)c1 | inconclusive: 17.8 µM [inhibitor, partial curve, poor fit]
COc1ccc(-c2c(-c3ccc(O)cc3O)n[nH]c2C(F)(F)F)cc1 | inconclusive: 14.1 µM [inhibitor, single point]
C=CCn1c(=NC(=O)c2ccco2)sc2cc(C(=O)OCC)ccc21 | inactive
O=C(Nc1ccccc1)c1ccc(Nc2c([N+](=O)[O-])cc([N+](=O)[O-])c3ccccc23)cc1 | inconclusive: 1.26 µM [inhibitor, partial curve]
O=C(Nc1ccc([N+](=O)[O-])cc1)C1CC1(c1ccccc1)c1ccccc1 (stereo not given) | inconclusive: 22.4 µM [inhibitor, single point]
O=C(Nc1ccccc1C(F)(F)F)C(O)(c1ccccc1)C1CCCCC1 (stereo not given) | inactive

SMILES | Potency
COc1ccc(OC)c(NC(=O)c2c3c(nc4ccccc24)CCC3)c1 | inconclusive: 15.8 µM [inhibitor, single point]
COc1cc(/C=C/C(=O)OCC(=O)NC(=O)NC(C)(C)C)ccc1OCC#N | inconclusive: 6.31 µM [inhibitor, full curve]
COc1ccc2c(c1)sc1nc(-c3ccccc3)cn12 | inconclusive: 31.6 µM [inhibitor, single point]
C/C(N)=C(/C#N)C(=O)CSc1nc2cc(Cl)ccc2c(=O)n1Cc1ccco1 | active: 14.1 µM
O=C(NCCN1C(=O)S/C(=C\c2ccccc2F)C1=O)C1CC(=O)N(Cc2ccccc2)C1 (stereo not given) | inconclusive: 0.891 µM [inhibitor, full curve, poor fit]
Cc1ccc(OCCN2CCCC2)cc1 | inconclusive: 31.6 µM [inhibitor, single point]
c1cncc(-c2nc(NCc3ccc4c(c3)OCO4)c3ccccc3n2)c1 | active: 11.2 µM
COc1cccc(SCC2(O)CCN(C(=O)c3ccc(Cl)cc3)CC2)c1 | inactive
Cc1cccc(NC(=O)c2cc(-c3ccccn3)nc3ccccc23)c1C | inconclusive: 22.4 µM [inhibitor, single point]
Cc1ccc(C)c(OCC(=O)Nc2ccccc2N2CCCC2)c1 | inactive
CCC/C=C(\CCC)C(NC(=O)c1ccc(C(=O)OC)cc1)c1ccc(C(=O)OC)cc1 (stereo not given) | inactive
COc1ccc(NC(=O)c2cc(-c3ccco3)nc3ccccc23)cc1 | inconclusive: 35.5 µM [inhibitor, partial curve, poor fit]
CC(C)OCCCNC(=S)Nc1ccc(S(N)(=O)=O)cc1 | inactive
COC(=O)c1c(C)[nH]c(C(=O)C(Cc2ccccc2)N(C)C)c1C (stereo not given) | inactive
NS(=O)(=O)c1ccc(CCNC(=O)c2cccc3ccccc23)cc1 | inactive
COC(=O)[C@]1(Cc2ccccc2)N[C@H](c2ccc(-c3ccccc3)cc2)[C@@H]2C(=O)N(C)C(=O)[C@@H]21 | inconclusive: 10 µM [inhibitor, partial curve]
CSc1ccccc1NC(=O)CN(C)C(C)C(=O)NC(=O)NC1CCCCC1 (stereo not given) | inconclusive: 25.1 µM [inhibitor, single point]
CN(C)c1ccc(/C=N/N=C2/NC(=O)/C(=C/c3ccc([N+](=O)[O-])cc3)S2)cc1 | inactive
Cc1cc(C)cc(NC(=O)CCn2c(=O)c3cccn3c3ccccc32)c1 | active: 3.16 µM
CCCCCC(=O)Nc1ccc(C(=O)N/N=C/c2ccc([N+](=O)[O-])cc2)cc1 | inconclusive: 1.12 µM [inhibitor, full curve]
CCCCn1c2c(c(=N)c3c1CCC3)CCC2 | inconclusive: 7.08 µM [inhibitor, partial curve]
CCn1c(SC(C)C)nnc1-c1cc(-c2ccccc2)sc1N | inconclusive: 11.2 µM [inhibitor, partial curve]
O=C(CSc1nc2ccccc2c2c1CCCC2)N1CCOCC1 | inconclusive: 31.6 µM [inhibitor, single point]
COc1cccc(C2CC(c3c(-c4ccccc4)c4cc(Cl)ccc4[nH]c3=O)=NN2S(C)(=O)=O)c1OC (stereo not given) | active: 11.2 µM

SMILES | Potency
CC1(C)Cc2nc3sc4c(SCC(=O)NCc5ccco5)ncnc4c3cc2CO1 | active: 14.1 µM
CCN(C(=O)COC(=O)C(O)(c1ccccc1)c1ccccc1)c1c(N)n(Cc2ccccc2)c(=O)[nH]c1=O | inconclusive: 5.62 µM [inhibitor, single point]
CCCCC(c1nnnn1CC1CCCO1)N1CCN(Cc2ccccc2)CC1 (stereo not given) | inactive
CN(c1ccccc1)c1ccc(/C=C/[N+](=O)[O-])cc1 | inconclusive: 31.6 µM [inhibitor, single point]
COc1ccccc1NC(=O)CSc1nnc(COc2ccccc2OC)n1C | inactive
CCN(CC)CCCn1c(SCC(=O)NCC2CCCO2)nc2ccccc2c1=O (stereo not given) | inactive
COCCN1CCn2c(nc3cc(Nc4nnc(C)c5ccccc45)ccc32)C1 | inactive
O=C(CSc1nnc(-c2cccs2)n1-c1ccccc1)N1CCCc2ccccc21 | inconclusive: 22.4 µM [inhibitor, single point]
COc1ccc(N2CCN(C(=O)CSc3nnc4n3C(C)(C)Cc3ccccc3-4)CC2)cc1 | inactive and inconclusive: 11.2 µM [inhibitor, single point]
CC(=O)c1cc2c(cc1NC(=O)CN(C)S(=O)(=O)c1cccs1)OCO2 | inconclusive: 28.2 µM [inhibitor, single point]
O=C(c1ccc(F)cc1)N1CCOC(c2nc(-c3ccc(F)cc3)no2)C1 (stereo not given) | inconclusive: 0.794 µM [inhibitor, full curve]
O=C1C=CC(=O)N1c1ccc2c(c1)C(NC(=O)C(F)(F)F)c1ccccc1-2 (stereo not given) | inconclusive: 11.2 µM [inhibitor, single point]
Cc1ccc(S(=O)(=O)N2CCC(=O)N(CCOC(=O)Nc3ccc(F)cc3)CC2)cc1 | inconclusive: 7.08 µM [inhibitor, partial curve]
O=C(CNc1ccc(F)cc1Cl)Nc1cccc(S(=O)(=O)N2CCCCC2)c1 | inconclusive: 8.91 µM [inhibitor, partial curve]
COc1ccc(C(CNC(=O)c2cccc(S(=O)(=O)N3CCOCC3)c2)N2CCCC2)cc1 (stereo not given) | inconclusive: 31.6 µM [inhibitor, partial curve]
C[C@H](CO)N1C[C@H](C)[C@@H](CN(C)C(=O)Nc2ccc3c(c2)OCO3)Oc2c(NC(=O)Nc3ccc(C(F)(F)F)cc3)cccc2C1=O | inconclusive: 10 µM [inhibitor, partial curve]
CCCc1cc(=O)[nH]c(SCC(=O)Nc2ccc(C)cc2)n1 | inactive
Cc1ccc(N(C)S(=O)(=O)c2ccc3c(c2)CC(C)N3C(=O)C2CC2)cc1 (stereo not given) | inactive
COc1ccc(CCNC(=O)c2cc(=O)c3ccc(C)cc3o2)cc1OC | inconclusive: 25.1 µM [inhibitor, partial curve]
O=c1nc2sc3ccccc3n2c(=O)n1-c1ccc(Cl)cc1 | inconclusive: 11.2 µM [inhibitor, single point]
N#C/C(=C\C=C\c1ccccc1[N+](=O)[O-])c1nc(-c2ccc3c(c2)OCO3)cs1 | active: 11.2 µM
CCn1c2ccccc2c2cc([N+](=O)[O-])ccc21 | inconclusive: 31.6 µM [inhibitor, single point]
